Source: ChEMBL document CHEMBL1156829
The full ranking holds about 5,400 compounds; the median of “IFI” is about 2, and the highest 2% start at about 22. The list shows a part of the results.

assay: NOVARTIS: Inhibition Frequency Index (IFI) - the number of HTS assays where a compound showed > 50% inhibition/induction, expressed as a percentage of the number of assays in which the compound was tested.; assay type: functional

Structure (SMILES)	IFI [%]
CCn1c(C=CN(C(C)=O)c2ccccc2)[n+](CC)c2cc(Cl)ccc21	0
O=c1nc(/C=C/c2ccc(Cl)cc2)oc2ccccc12	2.38
O=C(Nc1ccc(C(F)(F)F)cc1)c1cc(S(=O)(=O)NC2CCCCCC2)ccc1F	0
COc1cc(NC(C)CCCN(Cc2ccc(Cl)cc2)C(=O)C(C)C)c2ncccc2c1 (stereo not given)	5.61
N/C(=N\C(=O)c1nc(Cl)c(N)nc1N)NCc1ccccc1	2.22
Cc1cc(N2CCCC2)nc2ccc(NC(=S)NCCCN3CCc4ccccc4C3)cc12	11.8
CCCn1c(=O)c2[nH]c(C3CCCC3)nc2n(CCC)c1=O	1.41
CCOc1ccc2nc3cc(NCc4ccco4)ccc3c(N)c2c1	7.46
CC1=C(C(=O)OCCC(C)C)C(c2ccccc2)C(C(=O)OCCC(C)C)=C(C)N1	0
CCOC(=O)N1CCC(NC(=O)c2c(C)nn(-c3cccc(C)c3)c2-n2cccc2)CC1	0
O=C(NNc1nc(-c2cc3ccccc3oc2=O)cs1)c1ccccc1	0
CCOC(=O)C1=C(C)NC2=C(C(=O)CC(c3ccc(OC)cc3)C2)C1c1cccc(F)c1 (stereo not given)	4.65
Cc1ccc(C=Cc2ccc(N(C)C)cc2)[n+](C)c1	15.4
COc1ccccc1CNC(=O)C1c2ccccc2C(=O)N2CCc3ccccc3C12 (stereo not given)	0
Oc1ccc2ccccc2c1CNc1nc2ccccc2[nH]1	15.4
CC(C)(C)NC(=O)C(c1ccncc1)N(Cc1ccccc1Cl)C(=O)c1ccc(-c2ccccc2)[nH]1 (stereo not given)	5.41
COC(=O)c1c(-c2ccccc2Cl)csc1N	0
Nc1nc(Cl)nc2ccccc12	0.625
Cc1ccc(-c2nnc(SCCCC(=O)NC(Cc3ccccc3)c3ccccc3)n2-c2cccc(Cl)c2)cc1 (stereo not given)	4.21
Cc1cccc(N(C)c2nc3ccccc3c3nnc(C)n23)c1	0
CCCCn1c(=N)n(CC(O)c2ccc(Br)cc2)c2ccccc21 (stereo not given)	6.25
CCN(CC)CCNc1nc2cc(OC)c(OC)cc2c2nc(-c3ccccc3)nn12	6.82
CCCCCCCSc1nsc(NC(=O)CCC)n1	3.66
Cc1c[n+](Cc2ccccc2)ccc1/C=C/c1ccccc1	7.14
Nc1ccc(-c2nc3cc(Oc4ccc(Oc5ccc6[nH]c(-c7ccc(N)cc7)nc6c5)cc4)ccc3[nH]2)cc1	5.8

Structure (SMILES)	IFI [%]
CCc1ccc(NC(=O)CSc2nc(C)cc(C)c2C#N)cc1	3.7
OCCCCCCCCCCC[n+]1ccccc1	1.22
Cc1cc2cc(C3C(C#N)=C(N)Oc4c3ccc3ccccc43)c(Cl)nc2cc1Cl (stereo not given)	5.1
COc1ccc2c(c1)C(=NN=C(N)N)c1cc(OC)ccc1-2	7.69
CCOc1ccc2[nH]c3c(NCCCN4CCOCC4)ncnc3c2c1	4.76
c1ccc(-c2cc(N3CCOCC3)nc(-c3ccccn3)n2)nc1	15.4
CC(=O)OCN1C(=O)N(COC(C)=O)C2C1N(COC(C)=O)C(=O)N2COC(C)=O (stereo not given)	1.14
Cc1ccc(C#N)c(SCc2nnc(-c3ccc(Cl)cc3)o2)n1	0
CC(=O)Nn1c(C(C)(C)C)nc2ccccc2c1=O	0
O=C(Nc1ccccc1C(=O)O)c1cccc(NC(=O)c2ccco2)c1	7.69
CCCNC1=C(N(C(C)=O)c2ccc(C)cc2)C(=O)c2ccccc2C1=O	18.4
COc1ccc(C2Sc3ccccc3N=C3C2=C(O)c2ccccc23)cc1 (stereo not given)	0
CCOc1ccc2[nH]c(=O)c(CN(CCN3CCCC3)C(=S)Nc3ccc(F)cc3)cc2c1	3.36
O=c1c2c([nH]c3ccccc13)CCCC2	2.16
Cc1ccc(S(=O)(=O)c2c(COC(=O)c3cccc(C)c3)c(-c3ccccc3)nn2C)cc1	3.9
CN(C)CCCNc1ncc(C(=O)NCCc2ccccc2)c(NCC2CCCCC2)n1	0.971
CCOC(=O)c1cnc2cc(OCC3CC3)c(OCC3CC3)cc2c1O	0.862
O=S(=O)(ON=C1CCCc2sc(Cl)cc21)c1ccccc1	2.24
O=C(CSc1nc2ccccc2[nH]1)Nc1ccc(Cl)cc1Cl	0
COc1ccc(N2C(N)=NC(N)=NC23CCCC3)cc1	0
O=C1NC(=O)C(Cc2ccc(S(=O)(=O)N3CCN(c4ccccc4)CC3)cc2)S1 (stereo not given)	1.24
COc1ccc(NC(=O)N(CCCNS(=O)(=O)c2ccc([N+](=O)[O-])cc2)c2ccc(Oc3ccccc3)cc2)cc1	0.901
CC[n+]1c(C)n(-c2ccccc2)c2ccc(C3Nc4ccccc4S3)cc21 (stereo not given)	3.17
CCN(C(=O)Cn1c(=O)oc2ccccc21)c1ccc(F)cc1	0
COc1ccc(C(=O)C(CCC(CNC(C)(C)C)C(=O)c2ccc(OC)cc2)CNC(C)(C)C)cc1 (stereo not given)	7.14

Structure (SMILES)	IFI [%]
CCOC(=O)C1=C(N)N(c2cccc([N+](=O)[O-])c2)C2=C(C(=O)CC(C)(C)C2)C1c1ccc(Br)cc1 (stereo not given)	0
CCCCN(CCCC)CC(O)c1cc(Cl)cc2c1-c1ccc(Cl)cc1/C2=C/c1ccc(Cl)cc1 (stereo not given)	1.45
O=C(NC1CCN(CC(O)CN(Cc2ccccc2)S(=O)(=O)c2ccccc2)C1)c1cccc2ccccc12 (stereo not given)	2.97
O=C(C1CCN(c2cccc3c2C(=O)N(C2CC2)C3=O)CC1)N1CCC(O)(c2ccc(Cl)cc2)CC1	8.82
CCC[P+](CCC)(CCC)CC1OCc2ccccc2CO1	3.7
NCC(=O)N1CCn2c(nc(-c3ccccc3)c2Nc2ccc3c(c2)OCO3)C1	4.17
CC(C)Nc1nc(-c2cccnc2)nc2ccccc12	0
C[N+]1(CCOC(=O)CCC(=O)OCC[N+]2(C)CCCCCC2)CCCCCC1	3.45
CCC(c1ccc(F)cc1)n1cc(C(=O)NCCCN2CCC(C)CC2)nn1 (stereo not given)	0
COc1cccc(NC(=O)c2cccc3c(=O)c4c([nH]c23)CCCC4)c1	0
Cc1cc(Nc2ccccc2)nc(Nc2ccccc2)n1	2.98
CCOc1cccc2c1N(C(=O)c1ccc(C)cc1)C(C)(C)C1=C2C2(SC(C(=O)OC)=C(C(=O)OC)S2)C(C(=O)OC)=C(C(=O)OC)S1	0
COc1ccc(C2CC(=O)C3=C(C2)NC(C)=C(C(=O)OC2CCCC2)C3c2cccc(C)c2)cc1OC (stereo not given)	10.7
O=C(Nc1ccc(-c2noc(CCc3ccccc3)n2)cc1)c1cccs1	4.54
CCOc1cc(C2CC(=O)NC3=C2C(=O)CC(c2ccc(OC)c(OC)c2)C3)ccc1O (stereo not given)	0
CCOC(=O)c1sc2ncnc(NCc3ccc(F)cc3)c2c1C	4.71
CC(C)=CCC/C(C)=C/CCC(C)NCCN1CCNCC1 (stereo not given)	3.33
COc1ccccc1/C=C/CN1CCN(c2ccccn2)CC1	0
Cc1ccc(S(=O)(=O)Nn2c(SCC(=O)NCCc3ccc(S(N)(=O)=O)cc3)nc3ccccc3c2=O)cc1	0
Nc1nc(N)c2cc(S(=O)(=O)N3CCCCC3)ccc2n1	16.4
COC(=O)C(C)NC(=O)c1ccc(F)cc1 (stereo not given)	0
COc1cc(-c2nc(-c3ccc(C)c(C)c3)c(-c3ccc(C)c(C)c3)[nH]2)cc(OC)c1O	8.79
COCCN(C)C(=O)COC(c1cccs1)c1cccnc1Cl (stereo not given)	2.91
CC(C)CNC(=O)c1ccc(OC2CCN(CC3CCCCC3)CC2)c(Cl)c1	2.78
CN(CCCNc1ccnc2cc(Cl)ccc12)C(=O)COc1ccc(Cl)cc1	1.87

Structure (SMILES)	IFI [%]
CCN1/C(=C/c2sc3cc(OC)c(OC)cc3[n+]2CC)C=Cc2ccccc21	23.1
CCOc1ccc2nc3cc(NC(=O)c4ccc(C)cc4)ccc3c(N)c2c1	0
CC1CN(C(=O)C(Cl)(Cl)Cl)C(C)CN1C(=O)C(Cl)(Cl)Cl (stereo not given)	0
Cc1cc(C)nc(NNc2c([N+](=O)[O-])cccc2[N+](=O)[O-])n1	0
COc1cc(NC(=O)C(F)(F)F)c(C(=O)c2ccc(C(F)(F)F)cc2)cc1OC	1.96
CCN1C(=O)NC(c2cccc(NC(=O)Nc3cc(C(F)(F)F)cc(C(F)(F)F)c3)c2)C(C(=O)OC(C)C)=C1C (stereo not given)	6.45
COc1ccc([N+](=O)[O-])cc1-c1ccc(/C=C(\C#N)c2nn(CCO)c(N)c2C#N)o1	1.61
CCC(c1nc2ccccc2c(=O)n1-c1ccc(F)c(Cl)c1)N(CCc1ccccc1)C(=O)COc1ccc(Cl)cc1 (stereo not given)	2.83
N#C/C(=C\c1ccccc1OCc1ccc(Cl)cc1Cl)c1nc2ccccc2[nH]1	9.23
N=c1c2ccccc2nnn1-c1cccc(C(F)(F)F)c1	2.53
COc1cccc(C(C(=O)NC2CCCCC2)N(C(=O)c2snc(C(N)=O)c2N)c2ccc(C)cc2)c1OC (stereo not given)	3.7
CCCCCCCn1c2c(c(=N)c3c1CCC3)CCCC2	14.3
CN(Cc1ccccc1)CC(O)COc1ccc(CNCCCN2CCCC2)cc1 (stereo not given)	7.69
CC1CCC(C(C)C)C(OC(=O)Cn2c(-c3ccccc3)[n+](C)c3ccccc32)C1 (stereo not given)	13.1
Cc1cc(-c2cnc(N3CCCC3)nc2C2CCN(Cc3cccnc3)CC2)on1	0
CC[n+]1ccc(C=Cc2ccc(N(C)C)cc2)cc1	10.4
COc1ccc(OC)c(-c2ccc(O)c(CNCCc3ccc(Cl)cc3)c2)c1	4.31
Cc1ccn2c(NC(C)(C)CC(C)(C)C)c(-c3ccccc3OC(=O)C(C)(C)C)nc2c1	2.73
COc1ccc(/C=C/C(=O)Nc2ccc(S(=O)(=O)N3CCOCC3)cc2)cc1	0
O=C(Nc1ccc(C(=O)Nc2ccc(C3=NCCCN3)cc2)cc1)Nc1ccc(C2=NCCCN2)cc1	3.51
COCCOC(=O)C1=C(C)NC2=C(C(=O)CC(c3ccc(OC)cc3)C2)C1c1ccc(Cl)cc1 (stereo not given)	4.65
CCOc1cc(C2C(C(=O)OC)=CNC=C2C(=O)OC)cc(Br)c1OCC	2.35
CCCCC(CC)C(=O)N(C)CCCNc1ccnc2cc(Cl)ccc12 (stereo not given)	3.64
O=C(O)c1cc([N+](=O)[O-])ccc1Oc1cncc(Cl)c1	0.833
CCC(NC1CCCCC1)c1nc2ccccc2c(=O)n1C (stereo not given)	2.5
